Assay results: article PMC9911399, “Two distinct binding modes provide the RNA-binding protein RbFox with extraordinary sequence specificity”
Numbering of substitutions follows the chain as printed; changes in the protein carry UniProt numbers. The list shows a part of the results.

T1: RBFOX1 RRM RbFoxmut (Fox-RRM*) (Homo sapiens, UniProt Q9NWB1 109-208, R118D;E147R;N151S;E152T)
T1 sequence: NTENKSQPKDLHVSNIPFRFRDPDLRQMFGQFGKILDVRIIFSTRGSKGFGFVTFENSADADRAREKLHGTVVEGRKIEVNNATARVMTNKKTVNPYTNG

B1: UGCCACU (DNA:RNA)
RNA: GGGAGACCGGAAUUCAGAUUGUCCUGCCACUUUAAAUCCCGUCGUAGCCACCA
DNA 1: CAATCTGAATTCCGGTCTCCC
DNA 2: TGGTGGCTACGACGGGATT
B2: ACUGGAG (DNA:RNA)
RNA: GGGAGACCGGAAUUCAGAUUGUCCACUGGAGUUAAAUCCCGUCGUAGCCACCA
DNA 1: CAATCTGAATTCCGGTCTCCC
DNA 2: TGGTGGCTACGACGGGATT
B3: AAGUGAG (DNA:RNA)
RNA: B2 RNA with C26A, U27G, G28U
DNA 1: CAATCTGAATTCCGGTCTCCC
DNA 2: TGGTGGCTACGACGGGATT
B4: GUUCCGU (DNA:RNA)
RNA: B1 RNA with U25G, G26U, C27U, A29C, C30G
DNA 1: CAATCTGAATTCCGGTCTCCC
DNA 2: TGGTGGCTACGACGGGATT
B5: UCGAGCU (DNA:RNA)
RNA: B1 RNA with G26C, C27G, C28A, A29G
DNA 1: CAATCTGAATTCCGGTCTCCC
DNA 2: TGGTGGCTACGACGGGATT
B6: AUCUGAG (DNA:RNA)
RNA: B2 RNA with C26U, U27C, G28U
DNA 1: CAATCTGAATTCCGGTCTCCC
DNA 2: TGGTGGCTACGACGGGATT
B7: CGCUAUA (DNA:RNA)
RNA: B1 RNA with U25C, C28U, C30U, U31A
DNA 1: CAATCTGAATTCCGGTCTCCC
DNA 2: TGGTGGCTACGACGGGATT
B8: UGGACCU (DNA:RNA)
RNA: B1 RNA with C27G, C28A, A29C
DNA 1: CAATCTGAATTCCGGTCTCCC
DNA 2: TGGTGGCTACGACGGGATT
B9: GCUUGGA (DNA:RNA)
RNA: B2 RNA with A25G, G28U, A30G, G31A
DNA 1: CAATCTGAATTCCGGTCTCCC
DNA 2: TGGTGGCTACGACGGGATT
B10: UAGUUUG (DNA:RNA)
RNA: B2 RNA with A25U, C26A, U27G, G28U, G29U, A30U
DNA 1: CAATCTGAATTCCGGTCTCCC
DNA 2: TGGTGGCTACGACGGGATT
B11: GAGCACG (DNA:RNA)
RNA: B1 RNA with U25G, G26A, C27G, U31G
DNA 1: CAATCTGAATTCCGGTCTCCC
DNA 2: TGGTGGCTACGACGGGATT
B12: ACAGGGC (DNA:RNA)
RNA: B2 RNA with U27A, A30G, G31C
DNA 1: CAATCTGAATTCCGGTCTCCC
DNA 2: TGGTGGCTACGACGGGATT
B13: UCUCAGC (DNA:RNA)
RNA: B1 RNA with G26C, C27U, C30G, U31C
DNA 1: CAATCTGAATTCCGGTCTCCC
DNA 2: TGGTGGCTACGACGGGATT
B14: GCUCAGU (DNA:RNA)
RNA: B1 RNA with U25G, G26C, C27U, C30G
DNA 1: CAATCTGAATTCCGGTCTCCC
DNA 2: TGGTGGCTACGACGGGATT
B15: CCAGCCA (DNA:RNA)
RNA: B2 RNA with A25C, U27A, G29C, A30C, G31A
DNA 1: CAATCTGAATTCCGGTCTCCC
DNA 2: TGGTGGCTACGACGGGATT
B16: GCCCGAA (DNA:RNA)
RNA: B2 RNA with A25G, U27C, G28C, G31A
DNA 1: CAATCTGAATTCCGGTCTCCC
DNA 2: TGGTGGCTACGACGGGATT
B17: AGACGAG (DNA:RNA)
RNA: B2 RNA with C26G, U27A, G28C
DNA 1: CAATCTGAATTCCGGTCTCCC
DNA 2: TGGTGGCTACGACGGGATT
B18: GGGUCUG (DNA:RNA)
RNA: B2 RNA with A25G, C26G, U27G, G28U, G29C, A30U
DNA 1: CAATCTGAATTCCGGTCTCCC
DNA 2: TGGTGGCTACGACGGGATT
B19: CUCCCCG (DNA:RNA)
RNA: B1 RNA with U25C, G26U, A29C, U31G
DNA 1: CAATCTGAATTCCGGTCTCCC
DNA 2: TGGTGGCTACGACGGGATT
B20: CCAGCCC (DNA:RNA)
RNA: B2 RNA with A25C, U27A, G29C, A30C, G31C
DNA 1: CAATCTGAATTCCGGTCTCCC
DNA 2: TGGTGGCTACGACGGGATT
B21: UCAGGAC (DNA:RNA)
RNA: B2 RNA with A25U, U27A, G31C
DNA 1: CAATCTGAATTCCGGTCTCCC
DNA 2: TGGTGGCTACGACGGGATT
B22: GUGGUGG (DNA:RNA)
RNA: B2 RNA with A25G, C26U, U27G, G29U, A30G
DNA 1: CAATCTGAATTCCGGTCTCCC
DNA 2: TGGTGGCTACGACGGGATT
B23: GGGCUCU (DNA:RNA)
RNA: B1 RNA with U25G, C27G, A29U
DNA 1: CAATCTGAATTCCGGTCTCCC
DNA 2: TGGTGGCTACGACGGGATT
B24: CCAGGGU (DNA:RNA)
RNA: B2 RNA with A25C, U27A, A30G, G31U
DNA 1: CAATCTGAATTCCGGTCTCCC
DNA 2: TGGTGGCTACGACGGGATT
B25: UGCGUAU (DNA:RNA)
RNA: B1 RNA with C28G, A29U, C30A
DNA 1: CAATCTGAATTCCGGTCTCCC
DNA 2: TGGTGGCTACGACGGGATT
B26: UUUAUAU (DNA:RNA)
RNA: B2 RNA with A25U, C26U, G28A, G29U, G31U
DNA 1: CAATCTGAATTCCGGTCTCCC
DNA 2: TGGTGGCTACGACGGGATT
B27: UAUCGUC (DNA:RNA)
RNA: B2 RNA with A25U, C26A, G28C, A30U, G31C
DNA 1: CAATCTGAATTCCGGTCTCCC
DNA 2: TGGTGGCTACGACGGGATT
B28: UAACGCG (DNA:RNA)
RNA: B1 RNA with G26A, C27A, A29G, U31G
DNA 1: CAATCTGAATTCCGGTCTCCC
DNA 2: TGGTGGCTACGACGGGATT
B29: GAAAGUA (DNA:RNA)
RNA: B2 RNA with A25G, C26A, U27A, G28A, A30U, G31A
DNA 1: CAATCTGAATTCCGGTCTCCC
DNA 2: TGGTGGCTACGACGGGATT
B30: UCAAAAU (DNA:RNA)
RNA: B1 RNA with G26C, C27A, C28A, C30A
DNA 1: CAATCTGAATTCCGGTCTCCC
DNA 2: TGGTGGCTACGACGGGATT
B31: UAUGUCG (DNA:RNA)
RNA: B2 RNA with A25U, C26A, G29U, A30C
DNA 1: CAATCTGAATTCCGGTCTCCC
DNA 2: TGGTGGCTACGACGGGATT

Target: T1, RBFOX1 RRM RbFoxmut (Fox-RRM*)
Assay: EMSA; HiTS-Eq, 1 nM pool, 10 min; buffer printed only for the single-RNA assays: 10 mM Tris pH 7.5, 150 mM NaCl, 3.4 mM EDTA, 0.001% NP-40, 30 C
Details: tags: His6 N-terminal (pET28a); label: 5' 32P
Method in brief: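 Purified wild-type or mutant RbFox RRM at increasing concentrations was equilibrated with 1 nM of 5′-radiolabelled RNA carrying 7 randomized nucleotides for 10 min in 50 µL. Unbound RNA was separated by 8% native PAGE and sequenced. Relative association constants came from read-count changes of each RNA species compared with the control reaction, normalised to the cognate motif.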

Row | Binder | binding signal
1 | B1 | 0.0751 KA relative to UGCAUGU
2 | B2 | 0.0916 KA relative to UGCAUGU
3 | B3 | 0.137 KA relative to UGCAUGU
4 | B4 | 0.127 KA relative to UGCAUGU
5 | B5 | 0.0817 KA relative to UGCAUGU
6 | B6 | 0.0945 KA relative to UGCAUGU
7 | B7 | 0.137 KA relative to UGCAUGU
8 | B8 | 0.0912 KA relative to UGCAUGU
9 | B9 | 0.0637 KA relative to UGCAUGU
10 | B10 | 0.24 KA relative to UGCAUGU
11 | B11 | 0.287 KA relative to UGCAUGU
12 | B12 | 0.0979 KA relative to UGCAUGU
13 | B13 | 0.0921 KA relative to UGCAUGU
14 | B14 | 0.0767 KA relative to UGCAUGU
15 | B15 | 0.0765 KA relative to UGCAUGU
16 | B16 | 0.0876 KA relative to UGCAUGU

Row | Binder | binding signal
17 | B17 | 0.109 KA relative to UGCAUGU
18 | B18 | 0.317 KA relative to UGCAUGU
19 | B19 | 0.107 KA relative to UGCAUGU
20 | B20 | 0.0899 KA relative to UGCAUGU
21 | B21 | 0.0849 KA relative to UGCAUGU
22 | B22 | 0.15 KA relative to UGCAUGU
23 | B23 | 0.0774 KA relative to UGCAUGU
24 | B24 | 0.0867 KA relative to UGCAUGU
25 | B25 | 0.143 KA relative to UGCAUGU
26 | B26 | 0.0943 KA relative to UGCAUGU
27 | B27 | 0.0704 KA relative to UGCAUGU
28 | B28 | 0.105 KA relative to UGCAUGU
29 | B29 | 0.116 KA relative to UGCAUGU
30 | B30 | 0.0761 KA relative to UGCAUGU
31 | B31 | 0.133 KA relative to UGCAUGU
